Inhibition data for 69 molecules are collected here from PubChem BioAssay AID485344 (National Center for Advancing Translational Sciences (NCATS), 2010).

About 6,900 (2%) of roughly 340,000 compounds were called active. Cut-off read from the data, not from the text of the source: active = inhibition above about 30%; inactive = below that, where a call was filed. The entries are a selection whose mix differs from that of the whole data set. Where no call is shown, the source filed none.

The experiment has as its target D(2) dopamine receptor (Homo sapiens) (UniProt P14416). Put plainly: HTS Assay for Allosteric Antagonists of the Human D2 Dopamine Receptor: Primary Screen for Antagonists. Note: 0% is about no effect. The settings on record: HEK293 TREx D2 cells, calcium flux, dopamine EC80; at 10 µM; stronger effect = higher value. The procedure, abridged: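 Calcium flux kinetic readout in an inducible HEK293 TREx D2 line plated overnight at 30 C. After 180 s compound exposure, an EC80 dopamine challenge follows with another 180 s kinetic read to detect antagonism.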
UniProt P14416, sequence (P14416 whole entry, looked up): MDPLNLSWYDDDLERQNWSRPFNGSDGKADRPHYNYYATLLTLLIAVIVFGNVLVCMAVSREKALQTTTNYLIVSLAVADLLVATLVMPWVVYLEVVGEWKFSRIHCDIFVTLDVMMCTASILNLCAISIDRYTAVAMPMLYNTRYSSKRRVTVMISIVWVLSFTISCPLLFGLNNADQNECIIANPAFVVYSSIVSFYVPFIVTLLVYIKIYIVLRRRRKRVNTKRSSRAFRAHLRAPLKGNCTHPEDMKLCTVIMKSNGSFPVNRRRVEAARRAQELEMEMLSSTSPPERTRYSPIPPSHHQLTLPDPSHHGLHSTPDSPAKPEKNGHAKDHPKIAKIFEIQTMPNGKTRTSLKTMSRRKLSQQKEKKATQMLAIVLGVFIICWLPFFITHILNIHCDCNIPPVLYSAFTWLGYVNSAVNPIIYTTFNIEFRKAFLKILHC
Turning to `Cc1c(C(c2ccc(F)cc2)c2c(O)c3ccccc3oc2=O)c(=O)n(-c2ccccc2)n1C` (centres undefined), the inhibition is -12.8%.
Regarding `O=C(COc1ccc(Cl)cc1)Nc1ccc(Cl)cc1C(=O)c1ccccc1`, the inhibition was -7.42%.
Under `Cc1nnc(NC(=O)c2cccn(Cc3ccccc3F)c2=O)s1` stands 8.69%; under `O=C1CC(c2c(F)cccc2Cl)c2c(c3ccccc3oc2=O)O1` (centres undefined), 9.69%.
The value for `CC(C)(C)c1ccc(C(=O)Nc2ccc(Cl)cc2C(=O)c2ccccc2)cc1` was 1.24%; that for `COc1ccc(CN2CCN(c3ccccc3)CC2)c(C)c1C` was active: 65.2%.
For `CN1CCCC(C(=O)c2ccccc2)C1` (centres undefined), the inhibition was active: 30.2%.
The value for `O=C(CCCN1CCC(n2c(=O)[nH]c3ccccc32)CC1)c1ccc(F)cc1` was active: 76.6%; that for `O=C(Nc1cc(C(F)(F)F)cc(C(F)(F)F)c1)c1cccn(Cc2ccccc2Cl)c1=O` was 9.66%; that for `CN1CCN(c2c(F)cc([N+](=O)[O-])c(N)c2Br)CC1` was active: 35.1%.
Under `C=Cc1ccc(Cn2c(C)c(CNCCc3cc(OC)ccc3OC)c(C(=O)O)c2C)cc1` stands -2.17%; under `CCN(CC)c1ccc(CN2CC=C(c3ccc(F)cc3)CC2)cc1`, active: 40.7%; under `Clc1ccc2c(c1)C(c1ccccc1Cl)=NCc1nnc(N3CCN(CCOc4ccccc4)CC3)n1-2`, active: 64.9%.
Under `CCCCc1nn2c(=O)cc(COC(=O)Cc3ccccc3)nc2s1` stands 1.96%.
`c1ccc(CN2CCc3nc4ccccc4cc3C2)cc1`: the inhibition is active: 76.4%.
With `CCN(CC)CCCOC(=O)C(OC(C)C)(c1ccccc1)c1ccccc1`, the inhibition is active: 57.1%.
Under `Cc1ccc(NC(=O)CN2C(=O)CN=C(c3ccccc3)c3ccccc32)cc1` stands 13%; under `COc1cc(CN2CC=C(c3ccc(F)cc3)CC2)cc(OC)c1`, active: 81.1%; under `Cc1ccccc1-n1nc(C)c2c1NC(=O)CSC2c1ccc(N(C)C)cc1` (centres undefined), -2.12%.
With `CCCCCc1nc2ccccc2c(=O)n1-c1ccc(C)cc1`, the inhibition stood at 4.26%.
As for `Cc1ccc(-c2cc(-c3ccccc3)cc(-c3ccccc3)[n+]2-c2ccccc2)cc1`, the inhibition is active: 38.2%.
The value for `Cc1ccc(CN2C(=O)c3ccccc3Sc3ccc(C(=O)N4CCC5(CC4)OCCO5)cc32)cc1` was 0.994%; that for `COc1ccc(-n2c(/C=C\c3ccccc3F)nc3ccccc3c2=O)cc1OC` was -7.44%.
Take `Nc1c(C(=O)Nc2ccc(Cl)c(C(F)(F)F)c2)sc2nc3c(cc12)N1CCC3CC1`: the inhibition is 2.68%.
Consider `NC1CCc2cc(O)c(O)cc2C1` (centres undefined), for which the inhibition was active: 101%.
As for `CC(C)c1nn2c(=O)cc(COC(=O)Cc3ccccc3)nc2s1`, the inhibition is -21.6%.
Under `CCCCOc1ccc(CCN)cc1Cl` stands active: 41.8%; under `C/C=C(\C)C(=O)OC1C(C)=C2C(C1OC(=O)CCCCC)C(C)(OC(C)=O)CC(OC(=O)CCC)C1(O)C2OC(=O)C1(C)O` (centres undefined), active: 35.9%; under `CN1CCN(c2c[nH]c(=O)[nH]c2=O)CC1`, active: 35.6%.
The value for `O=C1CN=C(c2ccccc2Cl)c2cc(Cl)ccc2N1Cc1cccc(Cl)c1` was -6.14%.
The value for `Cc1ccc(NC(=O)c2cccn(Cc3ccccc3C)c2=O)c(C)c1` was 15.9%.
In the case of `Cc1ccc(NC(=O)Cn2cc(C(=O)c3ccccc3)c3ccccc32)cc1`, the inhibition is -3.69%.
Turning to `Cn1c(=O)n(C)c2cc(CNCCc3ccc(F)cc3)ccc21`, the inhibition was found to be 8.17%.
Under `CN1CSC(=S)N(C)C1` stands active: 41.5%; under `CC(=NCCC1=CCCCC1)c1c(O)n(-c2ccccc2)c(=O)[nH]c1=O`, active: 31%.
The value for `Cc1ccc2nc(NC(=O)c3cccn(Cc4ccc(Cl)cc4)c3=O)sc2c1` was 19.5%; that for `CCOc1ccc(CN(CCc2ccc3c(c2)OCO3)Cc2cccc(OC)c2)cc1` was -1.59%; that for `CCOc1ccc(NC(=O)Cn2cc(C(=O)c3ccccc3)c3ccccc32)cc1` was 8.39%.
With `CC(C)C12CN3CC(C(C)C)(CN(C1)C3c1ccccn1)C2=O` (centres undefined), the inhibition amounted to 17.8%.
The value for `CC(=O)N1CCC(N2CCCC(C(=O)c3cccc(Cl)c3)C2)CC1` (centres undefined) was active: 77.8%.
The value for `Cc1ccc(-n2c(/C=C\c3ccc(F)cc3)nc3ccccc3c2=O)cc1Cl` was 8%.
Under `Cc1cccc(-c2nc(CN3C(=O)CN=C(c4ccccc4)c4ccccc43)c(C)o2)c1` stands -8.44%.
With `CCCOc1ccc(C2SCC(=O)Nc3c2c(C)nn3-c2cccc(C)c2)cc1OC` (centres undefined), the inhibition came out at 8.63%.
Regarding `COc1cccc(NC(=O)Cn2cc(C(=O)c3ccccc3)c3ccccc32)c1`, the inhibition was 1.16%.
For `Oc1cc2c(cc1CN1CCN(c3ccccc3)CC1)OCO2`, the inhibition was active: 108%.
The value for `Cc1cccc(Cn2cccc(C(=O)Nc3ccc4c(c3)OCCO4)c2=O)c1` was -16.6%.
Under `CCN(CC)CCSc1nc2ccccc2c(=O)n1-c1ccc(Cl)cc1` stands 8.48%; under `Cn1cc(C(=O)OCC(=O)NC2CCCCC2)c2ccccc21`, active: 39.1%.
Under `O=C1NC(=O)[C@]2(Cc3ccccc3N3CCN(c4ccccc4)CC32)C(=O)N1Cc1ccccc1` (some centres undefined) stands active: 39.8%; under `CCOC(=O)C1(CCc2ccccc2)CCN(Cc2cccc3c2OCO3)CC1`, active: 47.3%; under `CC1CCN(CC#CCOc2ccc(Cl)cc2)CC1`, active: 86.3%.
Consider `Cc1ccc(Cn2cccc(C(=O)Nc3ccc4c(c3)OCO4)c2=O)cc1`, for which the inhibition is -14.9%.
Under `Cc1cccc(CNCCc2c[nH]c3ccccc23)c1` stands active: 46.8%.
The value for `Cc1cccc(OCC(=O)N2CCN(CCc3ccccn3)CC2)c1` was 22.6%; that for `O=C(Nc1ccc(F)c([N+](=O)[O-])c1)c1cccn(Cc2ccccc2)c1=O` was -1.15%; that for `COc1ccccc1N1CCN(Cc2ccccc2)CC1` was active: 96.6%.
Under `COC(=O)C1=C(c2c(C)noc2C)C[C@@H]2CC[C@H]1N2C(=O)NC(C)C` stands active: 41.8%; under `CCCN1CCO[C@@H]2c3cc(O)ccc3OC[C@H]21`, active: 72.2%; under `Cc1ccc(-n2c(=O)[nH]c3ccc(Br)cc3c2=O)cc1`, 4.56%.
As for `CC1(C)CSC(=NCc2ccccc2)N1`, the inhibition is active: 55.7%.
Consider `Cc1cccc(CN2CC=C(c3noc(CCC(=O)Nc4ccc(C)c(F)c4)n3)CC2)c1`, for which the inhibition is 2.73%.
The value for `COCCOC(=O)c1c(N)n(Cc2ccccc2)c2nc3ccccc3nc12` was active: 36.2%; that for `COc1ccc(NC(=O)c2sc3nc4c(cc3c2N)N2CCC4CC2)cc1OC` was -0.131%; that for `Cc1ccc2c(c1)C(Cc1nc3ccccc3c(=O)n1-c1ccc(Br)cc1)C(=O)N2` (centres undefined) was -4.58%.
With `CN1CC(C(=O)c2ccccc2)C(c2ccccc2)C1` (centres undefined), the inhibition was active: 35.1%.
The value for `O=C(COc1ccccc1F)N1CCN(Cc2cc(=O)n3nc(-c4ccccc4Cl)sc3n2)CC1` was 5.14%; that for `CSc1ccccc1C(=O)C1CCCN(Cc2ccn[nH]2)C1` (centres undefined) was active: 48.4%; that for `O=C(COc1cc(Cl)ccc1Cl)Nc1ccc(Cl)cc1C(=O)c1ccccc1` was -15.3%.
Consider `CCCN1CCCC(C(=O)c2cc(C)c(OC)c(C)c2)C1` (centres undefined), for which the inhibition is active: 86.3%.

The inhibition is the change of the read-out against control, counted positive when it falls.
